# Measured values from PubChem BioAssay AID488969 (Vanderbilt High Throughput Screening Facility, 2010).
# Over roughly 110,000 compounds, “z-score” has its median near -0.1; the highest 2% begin near 2. This is one part of the list. The source made the active and inactive calls.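 How the source made its calls: active means z-score in the third read window above 3 or below -3; inactive means the rest.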
# Molecular target: Metabotropic glutamate receptor 8 (Rattus norvegicus) (UniProt P70579)
# Assay: rat mGluR8 modulators via GIRK flux, primary screen, cell-based, thallium flux, HTS (AID 488969)
# Conditions: HEK293 rat mGluR8, GIRK (G protein-gated inwardly rectifying potassium channel) thallium flux, FluoZin2; at 10 µM; stronger effect = higher value; submaximal glutamate (EC20) added with thallium
# Sequence of UniProt P70579 (P70579 whole entry, looked up): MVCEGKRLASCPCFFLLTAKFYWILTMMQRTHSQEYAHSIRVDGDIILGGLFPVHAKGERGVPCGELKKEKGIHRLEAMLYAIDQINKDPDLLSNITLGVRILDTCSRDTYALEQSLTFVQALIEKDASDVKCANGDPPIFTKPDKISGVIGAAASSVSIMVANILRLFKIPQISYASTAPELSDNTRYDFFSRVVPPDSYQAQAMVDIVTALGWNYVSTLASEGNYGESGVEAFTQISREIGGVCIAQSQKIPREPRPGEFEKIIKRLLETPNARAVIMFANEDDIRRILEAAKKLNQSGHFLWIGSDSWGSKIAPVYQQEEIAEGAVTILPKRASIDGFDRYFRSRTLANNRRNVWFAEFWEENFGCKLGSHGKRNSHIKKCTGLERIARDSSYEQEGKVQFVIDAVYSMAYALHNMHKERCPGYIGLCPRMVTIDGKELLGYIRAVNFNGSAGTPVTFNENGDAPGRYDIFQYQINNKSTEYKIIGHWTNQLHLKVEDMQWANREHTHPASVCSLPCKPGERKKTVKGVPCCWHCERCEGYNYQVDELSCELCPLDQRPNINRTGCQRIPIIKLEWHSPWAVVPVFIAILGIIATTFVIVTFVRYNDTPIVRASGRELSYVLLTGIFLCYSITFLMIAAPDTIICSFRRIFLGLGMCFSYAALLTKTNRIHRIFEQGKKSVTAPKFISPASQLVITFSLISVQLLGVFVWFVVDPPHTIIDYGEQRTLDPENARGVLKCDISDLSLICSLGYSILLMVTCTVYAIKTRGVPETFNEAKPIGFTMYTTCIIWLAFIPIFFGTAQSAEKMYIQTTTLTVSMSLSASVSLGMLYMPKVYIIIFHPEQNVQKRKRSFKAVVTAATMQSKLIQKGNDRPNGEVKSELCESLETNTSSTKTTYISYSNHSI
row,SMILES,z-score
1,CSc1nnc(C)c(/C=C/Nc2ccc(C)cc2)n1,-0.226
2,O=C(Nc1ccc(SC(F)F)cc1)c1ccc2nccnc2c1,-0.51
3,CCN1CCCC(NC(=O)c2scc3c2CCCC3)C1 (configuration not stated),-0.204
4,O=C(c1ccc(Cl)cc1)c1oc2ccccc2c1CS(=O)(=O)c1ccccc1,-0.000363
5,CCN(CC)C(=O)Cn1cnc2c1c(=O)n(C)c(=O)n2C,-0.242
6,COc1ccc(N(CC(=O)Nc2nc3ccc(C)cc3s2)S(=O)(=O)c2c(C)nn(C)c2C)cc1,2.44
7,CN(C(=O)CCN1C(=O)C(C)(C)Nc2ccccc21)c1ccccc1,0.0324
8,CCOC(=O)NC1(NC2CCCCC2)Oc2ccccc2O1,0.41
9,COCCOc1nc2c(c(=O)n(C)c(=O)n2C)n1Cc1cccc(OC)c1,-0.174
10,CCOC(=O)CSc1nnc(Cc2cc(=O)[nH]c(=O)[nH]2)n1-c1cccc(OC)c1,-0.125
11,CC1(C)[N+]([O-])=C2C(=[N+]([O-])C1(C)C)c1ccccc1/C2=N\O,0.0279
12,CC1(C)CC(=O)C2=C(C1)OC(N)=C(C#N)C21C(=O)N(CN2CCOCC2)c2ccccc21 (configuration not stated),-0.00502
13,Cc1cc(OCC(=O)N[C@@H](Cc2ccccc2)c2nc3ccccc3[nH]2)ccc1Cl,-0.0561
14,CN(C)/C=C(\C#N)C(=O)Nc1ccc(F)cc1,0.23
15,Brc1ccccc1C1=Nn2c(nnc2-c2ccccc2)SC1,-1.33
16,Cc1cc(C)c(S(=O)(=O)N2CCCC(C(=O)NCCC3=CCCCC3)C2)c(C)c1 (configuration not stated),-0.195
17,N#Cc1c(N)c(C(=O)c2ccccc2)n2c1CCC2,-0.0593
18,Oc1c(C(c2ccco2)N2CCOCC2)sc2ncnn12 (configuration not stated),-0.0272
19,Cc1ccccc1CN(c1ccc(C(=O)NCCC2=CCCCC2)cc1)S(C)(=O)=O,0.0784
20,CC(=O)Nc1ccc(NS(=O)(=O)C(F)(F)F)cc1,0.785
21,CNC(=O)c1c(NC(NC(=O)c2ccco2)C(=O)c2ccc(Cl)cc2)sc2c1CCCC2 (configuration not stated),-0.475
22,COc1ccc(NCc2nnc(SCC(=O)Nc3cc(C)cc(C)c3)o2)cc1,0.0362
23,COc1cc2c(cc1OC)C(C(=O)NCc1ccco1)C(c1cccs1)N(C)C2=O (configuration not stated),0.637
24,Cc1ccc(NC(=O)CS(=O)CC(=O)NC(C)CCc2ccco2)cc1Cl (configuration not stated),-0.455

row,SMILES,z-score
1,CCOc1ccc(-c2c[n+](=O)c3c(n2[O-])CCCC3)c(OCC)c1,-0.712
2,CCOC(=O)Cn1c(CN2CCN(c3cccc(Cl)c3)CC2)nc2c1c(=O)[nH]c(=O)n2C,0.0733
3,O=C(Oc1ccc(=O)n(-c2ccccc2)n1)c1ccc(Cl)cc1,-1.58
4,Cc1cccc(C)c1NC(=O)C(c1ccccc1)N1CCC2(CC1)OCCO2 (configuration not stated),-0.142
5,O=C(CSCc1cnn(-c2ccccc2)c1-n1cccc1)NCCN1CCOCC1,-0.215
6,Cc1ccc(C(=O)NCCc2nc3ccccc3[nH]2)cc1[N+](=O)[O-],0.107
7,Clc1cccc(OCCN2CCN(CCOc3cccc(Cl)c3)CC2)c1,0.21
8,COc1ccccc1CNC(=O)c1oc2ccc(S(=O)(=O)N3CCCC3)cc2c1C,-0.521
9,COCCCNC(=O)Nc1ccc(Br)cc1Cl,0.0298
10,CC(C)(C)c1nc(CN2CCOCC2)ccc1O,0.965
11,O=C(c1ccccc1)c1ccc(CN2C(=O)c3ccccc3C2=O)o1,-0.422
12,CCOC(=O)Cn1c(=O)oc2cc(S(=O)(=O)NCCCc3ccccc3)ccc21,active: 3.36
13,Cc1cc(C)c(C(=O)CC2(O)C(=O)Nc3ccccc32)cc1C (configuration not stated),-0.116
14,CCN(CC)C(=O)CSc1nc2ccccc2c(=O)n1-c1cccc(OC)c1,-2.06
15,COc1ccc(/C(N)=N/OC(=O)CSc2ccccc2)cc1,-0.955
16,CC(C)C(C(=O)C=[N+]=[N-])N1C(=O)c2ccccc2C1=O (configuration not stated),0.097
17,O=C(Nc1ccccc1)c1n[nH]c(Cn2cncn2)n1,-0.138
18,Cc1cc(=O)oc2cc(OCC(=O)Nc3cccc(S(=O)(=O)N(C)C)c3)ccc12,-0.0464
19,CCOC(=O)c1ccc(NC(=O)Nc2c(C)nn(C)c2C)cc1,-0.0137
20,NS(=O)(=O)c1cccnc1Nc1ccc(Cl)c(Cl)c1,-0.00633
21,CC(C)N1C(=O)CCC1C(=O)N1CCCc2ccccc21 (configuration not stated),0.347
22,Cc1ccc(S(=O)(=O)N(C)Cc2nc(-c3ccccn3)no2)cc1,-0.201
23,CCOC(=O)c1oc2cccc(O)c2c1C,-0.427
24,O=C1/C(=C/c2ccc(F)c(F)c2)CSc2sccc21,-0.895

row,SMILES,z-score
1,CCOc1ccccc1C(=O)N/N=C/c1cccc2cccnc12,-0.542
2,CCc1nnc(NC(=O)CCN2C(=O)CCC2=O)s1,0.0672
3,CC1CCN(c2ccccc2NC(=O)c2ccc(N3CCOCC3)c([N+](=O)[O-])c2)CC1,-0.0873
4,O=C(Cn1nc(-c2ccccc2)nc1-c1ccccc1)OC1CCCCC1,-0.021
5,OC1(c2cccnc2)CCN(Cc2nnnn2C2CCCCC2)CC1,-0.566
6,O=C(CC(=O)N1CCN(c2ccccn2)CC1)Nc1ccc2nc3n(c(=O)c2c1)CCCCC3,-0.138
7,CCOc1ccccc1N/C=C(\C#N)c1nc2ccccc2n1C,-0.0997
8,COc1cccc(C2=NOC(C(=O)NCc3cccs3)C2)c1 (configuration not stated),-0.0794
9,Cc1cc([N+](=O)[O-])nn1Cc1ccc(C(=O)N/N=C/c2ccccc2)cc1,-0.109
10,CCCCn1c(NC(=O)C2CCCCC2)nc2ccccc21,1.11
11,CCOC(=O)C(NC(C)=O)(Nc1ccc(S(N)(=O)=O)cc1)C(F)(F)F (configuration not stated),0.0525
12,COCCCn1c(SCC(=O)Nc2ccc(NC(=O)c3ccco3)c(OC)c2)nc2ccccc2c1=O,-0.137
13,COC(=O)C1(C(=O)OC)Sc2ccccc2C1=O,0.914
14,C/C(=N\NC(=O)c1ccc(N(C)C)cc1)c1ccc(C)c(C)c1,0.0219
15,O=C(CSc1nnc2scc(-c3ccccc3)n12)NCC1CCCO1 (configuration not stated),0.786
16,Nc1ncc2c(n1)CC(c1ccco1)CC2=O (configuration not stated),-0.0173
17,CCOc1ccccc1NC(=O)CN1C(=O)COc2ccc(Cl)cc21,-0.361
18,Cc1cc(NS(=O)(=O)c2ccccc2)no1,-0.147
19,Cc1ccc(SCC(=O)n2nc(C)cc2C)cc1,-0.158
20,COc1cc(OC)cc(-c2nc3cc(C)ccc3o2)c1,1.19
21,COCCCNC(=S)NNC(=O)c1csc2ccccc12,-0.0918
22,CCOCCCNCC(=O)NC1(C)C2CCC(C2)C1(C)C (configuration not stated),-0.581
23,CCN(CC)CCN=C1CCCc2ccccc2N1,-0.97
24,CC(C)C1N=C(c2ccc3c(c2)OCO3)CC(c2ccccc2O)N1 (configuration not stated),-0.117
